± gives the standard deviation. This is a selection; strong and weak results do not stand in their true shares.
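Further: 1 nM active piRISC with 0.1 nM target library at 33 °C single turnover.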

In the test the test system is MIWI (PIWIL1) piRISC loaded with L1MC piRNA (30 nt). The test is described as follows: pre-steady-state target cleavage rate (min^-1); MIWI and MILI are mouse PIWI proteins and EfPiwi is from a freshwater sponge; tags in brackets are library labels; higher = faster piRNA-guided slicing of the target. The conditions noted are these: guide: L1MC piRNA 5'p-UAACUAAAUACUAUGCAAGCUGUAGGUCCU; auxiliary factor: 500 nM mouse GTSF1. In a few lines:
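In HEPES–potassium acetate buffer at 33 °C, […] transcribed, DNA-blocked target RNA library was mixed with 1 nM active affinity-purified piRISC carrying one synthetic guide, with or without 500 nM GTSF1 partner protein, for 0–8 or 0–960 min. Uncleaved targets were sequenced and normalised to depth and to weakly complementary targets; three trials were pooled and k3 was capped at 0.0001 min^-1. The pre-steady-state cleavage rate followed from a burst-and-steady-state fit.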
With UCCUCCUACAGCUUGCAUAGUAUGUAGUUA, the “pre-steady-state target cleavage rate” value is 0.172 ± 0.036.
UCCUCCUACAGCUUGCGAUAGUAUUUAGUUA: the “pre-steady-state target cleavage rate” value stood at 0.0601 ± 0.018.
UCCUGGAUGUCCUAGCAUAGUAUUUAGAUA: the “pre-steady-state target cleavage rate” value is 0.00439 ± 0.0033.
With UCCUCCUACAGCUUGCAUAGUUAAUACAAA, the “pre-steady-state target cleavage rate” value is 0.0247 ± 0.011.
For the sequence UCCUGGAUGUCGAUGCAUAGUAUUUAGUGA, the “pre-steady-state target cleavage rate” value is 0.0103 ± 0.0037.
Consider UCCACCUACAGCUUGCAUAGUAUGUAGUUA, for which the “pre-steady-state target cleavage rate” value was 0.231 ± 0.047.
For the sequence UCCUGGAACAGCAAGCAUAGUAUUUUCAAA, the “pre-steady-state target cleavage rate” value is 0.0377 ± 0.012.
Consider UCGACCUACACGAUGCAUAGUAUUUUCAAA, for which the “pre-steady-state target cleavage rate” value was 0.182 ± 0.032.
UCCUGGAUCAGCUUGCAUAGCUAUUUAGUUA: the “pre-steady-state target cleavage rate” value came to 0.00447 ± 0.0039.
UCCACCUACAGCUUCCAUAGUAUUUAGAAA: the “pre-steady-state target cleavage rate” value is 0.0141 ± 0.0076.
For UCCUCCUACAGCUUGGUUAGUAUUUUCAAA, the “pre-steady-state target cleavage rate” value worked out at 0.0342 ± 0.014.
Consider UGGACCUACAGCUUCCAUAGUUUUUAGUUA, for which the “pre-steady-state target cleavage rate” value amounted to 0.00643 ± 0.0024.
The same measure for UGGACCUACAGCUACGAUAGUAUUUAGUUA: 0.126 ± 0.018; for UCCUGGUACACGUUGCAUAGUAUUUAGAAA: 0.0204 ± 0.01.
On to UCCUGGUACAGCUUGCAAUCUAUUUAGUAA, for which the “pre-steady-state target cleavage rate” value was 0.0223 ± 0.0096.
The same measure for UCCUCCUACAGCUUGCAUACUAUUUUCAAA: 0.156 ± 0.035; for UCCUGCUUGUGCUUGCAUAGUAUUUUCAAA: 0.0168 ± 0.0052.
As to UCCUGGAUGUCCUUGACAUAGUAUUUAGUUA, the “pre-steady-state target cleavage rate” value came out at 0.00964 ± 0.0055.
Consider UCCUGGAUGUCCUUGCAUAGUAUUUAGAAA, for which the “pre-steady-state target cleavage rate” value worked out at 0.00711 ± 0.0046.
As to UCCACCUACAGCUUGCUAUGUAUUUAGAAA, the “pre-steady-state target cleavage rate” value stood at 0.00878 ± 0.0045.
As for UCGACCUACAGCUACGAUAGUAUUUAGUAA, the “pre-steady-state target cleavage rate” value worked out at 0.0658 ± 0.019.
With UCCACCUACAGGAAGCAUAGUAUUUACAAA, the “pre-steady-state target cleavage rate” value amounted to 0.182 ± 0.038.
UCCUCCUACAGCUUGCAUAGUAUUAAGAAA: the “pre-steady-state target cleavage rate” value was 0.301 ± 0.043.
In the case of UCCUGGAUGUCCUACCAUAGUAUUUAGUUA, the “pre-steady-state target cleavage rate” value amounted to 0.0405 ± 0.013.

For the origin of these results see the supplement of paper PMC10338343.
